Values marked as one replicate rest on one cluster of the flow cell; about a third of the high ones do not repeat.
System: ATP
Test: switch fluorescence ratio, 500 uM ATP over buffer (Cy3 cluster intensity, sum of 5 cycles each) (fold (ratio)); higher = stronger signal-on switching upon ATP binding; sequences stand for … in TCGTCGGCAGCGTCAGATGTGTATAAGAGACAGTTTTTTTTTTTTTTTTTTTTTTTTT…TC
Conditions: aptamer strand: ATP DNA aptamer (quencher-CACCTGGGGGAGTATTGCGGAGGAAGG + anchor), 100 nM annealed; ATP concentration: 500 uM; one replicate
Procedure, shortened: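 Cy3-labelled switching-strand clusters on a modified Illumina MiSeq flow-cell were annealed to 100 nM quencher-labelled ATP aptamer, imaged in selection buffer, then imaged after 15 min with 500 uM ATP at 22 °C. Five buffer/ATP cycles ran, with NaOH stripping and re-annealing between them. The fluorescence ratio is summed target-cycle over summed buffer-cycle Cy3 intensity per cluster, averaged per switch-domain sequence. Clusters outside 100-1000 RFU were excluded.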
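Further: ATP exposure 15 min at 22 °C before imaging.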

ACACGCCTAG
switch fluorescence ratio: 0.995

AACGCGGACG
switch fluorescence ratio: 1.02

TTGTGGCCCG
switch fluorescence ratio: 0.945

AATAAGGAGC
switch fluorescence ratio: 1

TTAACTGTTG
switch fluorescence ratio: 1.03

TAAAACGCCA
switch fluorescence ratio: 1.09

TGCTGGGGC
switch fluorescence ratio: 1.04

GCATCATAGT
switch fluorescence ratio: 1.04

AGGGAAGGGT
switch fluorescence ratio: 0.972

GCACAAGGCG
switch fluorescence ratio: 1.07

TGTGTAACA
switch fluorescence ratio: 0.98

CTAGAACTTT
switch fluorescence ratio: 1.01

ATGTGCCCAG
switch fluorescence ratio: 1.02

AAGGCCTCGA
switch fluorescence ratio: 1.01

AGTGGGACGG
switch fluorescence ratio: 1.02

GGGGGCATCC
switch fluorescence ratio: 1.1

TCCGTAGTTG
switch fluorescence ratio: 1.61

CTAGTTTCCA
switch fluorescence ratio: 0.962

TCTGGAAGG
switch fluorescence ratio: 0.999

AAGAGAGCAC
switch fluorescence ratio: 0.939

ACTTACGTGT
switch fluorescence ratio: 1.34

CTGCACTAGG
switch fluorescence ratio: 1.23

GCGCTATGGG
switch fluorescence ratio: 0.973

CGGCCCAACG
switch fluorescence ratio: 1.01

GGAGAATCCG
switch fluorescence ratio: 1.05

ATTCATCTCG
switch fluorescence ratio: 0.999

GCAAAATGCG
switch fluorescence ratio: 0.989

TTACCGGAGA
switch fluorescence ratio: 1.07

CGGATGTCCA
switch fluorescence ratio: 1.02

GACCGGGAGT
switch fluorescence ratio: 0.976

TTTCTCCCGT
switch fluorescence ratio: 0.969

GATAATGATC
switch fluorescence ratio: 1.01

TGCAAACATG
switch fluorescence ratio: 0.995

GTAAGTGAGG
switch fluorescence ratio: 1.01

ACCGACCAGC
switch fluorescence ratio: 2.11

ATATAAGAAC
switch fluorescence ratio: 1.27

ATAGAGGT
switch fluorescence ratio: 0.983

TACAATATAA
switch fluorescence ratio: 1.04

TTGTGCCTGA
switch fluorescence ratio: 1.02

TACAAAGCCG
switch fluorescence ratio: 1.08

GCATTTTGAT
switch fluorescence ratio: 0.996

ACACTGTCTA
switch fluorescence ratio: 1.01

TCACACGTGG
switch fluorescence ratio: 1.02

AAGCCTGCTA
switch fluorescence ratio: 1.07

CGAGGTCGGA
switch fluorescence ratio: 1.03

CACGATCACG
switch fluorescence ratio: 1.08

AATTCTGGCG
switch fluorescence ratio: 0.965

AATACCCGCA
switch fluorescence ratio: 1.18

CGACATCCTT
switch fluorescence ratio: 1.02

ATCGTCAGTG
switch fluorescence ratio: 0.949

GATCCCGGTG
switch fluorescence ratio: 1.21

CGAGACTGCT
switch fluorescence ratio: 0.984

ATCCCAAGC
switch fluorescence ratio: 1.39

GAAACCACCA
switch fluorescence ratio: 1.04

GCAACAACAT
switch fluorescence ratio: 1.02

CCATTGGGC
switch fluorescence ratio: 1.01

AGTTCGCGTC
switch fluorescence ratio: 1.04

GCTCGCTTAA
switch fluorescence ratio: 1.18

TTCGTGAGAG
switch fluorescence ratio: 0.997

TGATGTCATG
switch fluorescence ratio: 0.988

GTCGGTAGCT
switch fluorescence ratio: 0.965

AGGATCGTAG
switch fluorescence ratio: 0.993

GACTGCAGAG
switch fluorescence ratio: 0.969

CCCACAGGCC
switch fluorescence ratio: 1.46

TAACGAAACG
switch fluorescence ratio: 0.993

TCAATTGGGG
switch fluorescence ratio: 0.972

AGGTCACGTT
switch fluorescence ratio: 0.987

TGCTCTCGCA
switch fluorescence ratio: 1.45

CGAACTACG
switch fluorescence ratio: 1.15

CAGCTAGGTA
switch fluorescence ratio: 0.975

AACGACTAAT
switch fluorescence ratio: 1.13

GGAAGTTGTT
switch fluorescence ratio: 1.02

CCCTTTTACC
switch fluorescence ratio: 1.03

CCTGGGAGTT
switch fluorescence ratio: 0.99

GCCTTACGCA
switch fluorescence ratio: 1.16

CGACCGTAGA
switch fluorescence ratio: 1.06

AATGTATTAG
switch fluorescence ratio: 0.974

Reference: the supplement of paper PMC10126150
